Source: article PMC4196162
Results are given in words; binding and its absence hold for the method and conditions named. Binding seen in cells or lysates may run through a third protein.

How the values were obtained:
Settings in all cases: remark: other sources report otherwise
[1] = target: T1, Sp1 (specificity protein 1) (human (endogenous in MCF7 and T47D)), P08047; test: co-IP; endogenous proteins, T47D whole cell lysates, Protein A sepharose; Western blot
[2] = target: T2, ß-catenin (human (endogenous in MCF7 and T47D)), P35222; test: as above
T2 chain: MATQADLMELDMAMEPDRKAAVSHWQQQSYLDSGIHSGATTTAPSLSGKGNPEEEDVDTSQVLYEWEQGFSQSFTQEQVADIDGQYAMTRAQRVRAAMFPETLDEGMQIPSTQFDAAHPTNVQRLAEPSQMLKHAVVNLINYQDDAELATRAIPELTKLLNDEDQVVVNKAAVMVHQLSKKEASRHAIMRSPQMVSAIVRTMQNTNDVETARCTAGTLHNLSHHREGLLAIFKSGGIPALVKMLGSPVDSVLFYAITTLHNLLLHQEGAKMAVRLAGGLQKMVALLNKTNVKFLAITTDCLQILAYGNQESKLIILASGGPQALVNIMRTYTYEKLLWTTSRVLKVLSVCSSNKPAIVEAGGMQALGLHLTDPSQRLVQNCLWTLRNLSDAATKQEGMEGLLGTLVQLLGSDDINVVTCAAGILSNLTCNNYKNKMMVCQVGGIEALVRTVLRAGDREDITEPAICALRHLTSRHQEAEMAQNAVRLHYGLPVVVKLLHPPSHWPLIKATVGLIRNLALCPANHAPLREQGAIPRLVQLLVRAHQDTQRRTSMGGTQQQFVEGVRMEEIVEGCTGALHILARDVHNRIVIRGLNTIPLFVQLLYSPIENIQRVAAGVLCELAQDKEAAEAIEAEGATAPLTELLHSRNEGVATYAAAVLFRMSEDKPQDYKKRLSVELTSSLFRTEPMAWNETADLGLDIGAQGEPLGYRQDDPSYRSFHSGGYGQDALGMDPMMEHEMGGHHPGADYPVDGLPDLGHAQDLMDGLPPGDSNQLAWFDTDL

[3] = target: T1, Sp1 (specificity protein 1) (human …); test: co-IP; endogenous proteins, MCF7 whole cell lysates, Protein A sepharose; mouse and rabbit IgG as negative controls; Western blot
[4] = target: T2, ß-catenin (human (endogenous in MCF7 …)); test: as above

binding [1]: no binding
binding [2]: no binding
binding [3]: no binding
binding [4]: no binding
B1: estrogen receptor alpha (ER), P03372 1-595 (protein)
chain: MTMTLHTKASGMALLHQIQGNELEPLNRPQLKIPLERPLGEVYLDSSKPAVYNYPEGAAYEFNAAAAANAQVYGQTGLPYGPGSEAAAFGSNGLGGFPPLNSVSPSPLMLLHPPPQLSPFLQPHGQQVPYYLENEPSGYTVREAGPPAFYRPNSDNRRQGGRERLASTNDKGSMAMESAKETRYCAVCNDYASGYHYGVWSCEGCKAFFKRSIQGHNDYMCPATNQCTIDKNRRKSCQACRLRKCYEVGMMKGGIRKDRRGGRMLKHKRQRDDGEGRGEVGSAGDMRAANLWPSPLMIKRSKKNSLALSLTADQMVSALLDAEPPILYSEYDPTRPFSEASMMGLLTNLADRELVHMINWAKRVPGFVDLTLHDQVHLLECAWLEILMIGLVWRSMEHPGKLLFAPNLLLDRNQGKCVEGMVEIFDMLLATSSRFRMMNLQGEEFVCLKSIILLNSGVYTFLSSTLKSLEEKDHIHRVLDKITDTLIHLMAKAGLTLQQQHQRLAQLLLILSHIRHMSNKGMEHLYSMKCKNVVPLYDLLLEMLDAHRLHAPTSRGGASVEETDQSHLATAGSTSSHSLQKYYITGEAEGFPATV
